One test has as its system HSkMC. Put plainly: cytotoxicity call (relative viability < 0.9). The following applies: 10 µM.
A further test concerns HepG2. Put plainly: cytotoxicity call (relative viability < 0.9). The following applies: 10 µM.
The subject of another test is S. aureus RN4220. Description: growth inhibition call (relative growth <= 0.2). The following applies: 50 µM.

The other results are listed elsewhere or left out.

For the compound `O=C(C[C@@H]1C[C@H]2c3cc(NC(=O)c4ccc5c(c4)OCO5)ccc3O[C@H]2[C@H](CO)O1)NCC(F)(F)F`, the cytotoxicity call in the test on HSkMC and with HepG2 was “inactive” throughout. In addition, in the test with S. aureus RN4220, the growth inhibition call is “inactive”.
Regarding `CCS(=O)(=O)N1C[C@]2(CN(C2)C(=O)c2ccc3c(c2)OCO3)c2c(n(c3cc(ccc23)OC)C)[C@@H]1CO`, the cytotoxicity call with HSkMC and in the test on HepG2 was “inactive” in each case. For the same compound, the growth inhibition call in the test with S. aureus RN4220 was “inactive”.
On to `CC(C)CN1C(=O)[C@@]2(Cc3ccccc31)c1ccccc1C(=O)N(Cc1ccccc1)[C@H]2c1ccc(CO)cc1`, for which the cytotoxicity call in the test with HSkMC and with HepG2 was “inactive” in each case. In addition, the growth inhibition call in the test with S. aureus RN4220 was “inactive”.
As for `CSC1=NN(C)c2cnn(C)c(=O)c2S1`, the cytotoxicity call in the test with HSkMC and in the test on HepG2 was “inactive” in each case. Besides, the growth inhibition call with S. aureus RN4220 is “inactive”.
On to `Cc1ccc(S(=O)(=O)Nc2ccc3c(c2)C(=O)N([C@@H](C)CO)C[C@@H](C)[C@H](CN(C)C(=O)Nc2ccccc2)OCCCC[C@@H](C)O3)cc1`, for which the cytotoxicity call with HSkMC and in the test on HepG2 was “inactive” in each case. The growth inhibition call in the test with S. aureus RN4220 was “inactive”.
As for `C[C@H]1CCCCO[C@@H](CN(C)S(=O)(=O)c2ccc(Cl)cc2)[C@@H](C)CN([C@@H](C)CO)C(=O)c2cc(NC(=O)NC3CCCCC3)ccc2O1`, in the test on HSkMC (human skeletal muscle cells), the cytotoxicity call is “inactive”. In addition, the cytotoxicity call in the test with HepG2 was “active”. The growth inhibition call with S. aureus RN4220 was “inactive”.
Take `C[C@H](CO)N1C[C@H](C)[C@H](CN(C)CC2CC2)Oc2c(NS(=O)(=O)c3ccccc3)cccc2C1=O`: the cytotoxicity call with HSkMC and in the test on HepG2 was “inactive” in each case. The growth inhibition call in the test on S. aureus RN4220 is “inactive”.
Regarding `CC(=O)N(C)C[C@@H]1Oc2ncc(C#CC(C)(C)O)cc2C(=O)N([C@@H](C)CO)C[C@@H]1C`, in the test with HSkMC, the cytotoxicity call was “active”. The cytotoxicity call with HepG2 is “inactive”. Besides, in the test with S. aureus RN4220, the growth inhibition call was “inactive”.
Regarding `COc1ccccc1CNC(=O)C[C@@H]1C[C@@H]2c3cc(NC(=O)c4cccnc4)ccc3O[C@@H]2[C@H](CO)O1`, the cytotoxicity call with HSkMC and with HepG2 was “inactive” throughout. Besides, the growth inhibition call in the test with S. aureus RN4220 was “inactive”.
In the case of `COc1ccc(S(=O)(=O)N(C)C[C@@H]2OCCCC[C@@H](C)Oc3ccc(NS(=O)(=O)c4ccc(Cl)cc4)cc3C(=O)N([C@H](C)CO)C[C@H]2C)cc1`, in the test with HSkMC, the cytotoxicity call is “inactive”. Moreover, in the test on HepG2, the cytotoxicity call is “active”. The growth inhibition call with S. aureus RN4220 was “inactive”.

The values are drawn from the antibiotic and cytotoxicity screens of Wong et al. (2023).
